# Reference: article PMC4336329 (PLoS ONE, 2015)
# Out of some 310,000 compounds screened, about 14,000 (4.5%) showed an effect of 50% or more. The effect is printed as a negative number. The list shows a part of the results.
# Target: human ether-à-go-go-related gene (hERG) potassium channel (human, UniProt Q12809)
# Assay: primary screen, population patch clamp on CHO cells stably expressing hERG
# 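Further: peak tail current of the secondary pulse compared with the same well before compound.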
# Sequence of human ether-à-go-go-related gene (hERG) potassium channel (Q12809 whole entry, looked up): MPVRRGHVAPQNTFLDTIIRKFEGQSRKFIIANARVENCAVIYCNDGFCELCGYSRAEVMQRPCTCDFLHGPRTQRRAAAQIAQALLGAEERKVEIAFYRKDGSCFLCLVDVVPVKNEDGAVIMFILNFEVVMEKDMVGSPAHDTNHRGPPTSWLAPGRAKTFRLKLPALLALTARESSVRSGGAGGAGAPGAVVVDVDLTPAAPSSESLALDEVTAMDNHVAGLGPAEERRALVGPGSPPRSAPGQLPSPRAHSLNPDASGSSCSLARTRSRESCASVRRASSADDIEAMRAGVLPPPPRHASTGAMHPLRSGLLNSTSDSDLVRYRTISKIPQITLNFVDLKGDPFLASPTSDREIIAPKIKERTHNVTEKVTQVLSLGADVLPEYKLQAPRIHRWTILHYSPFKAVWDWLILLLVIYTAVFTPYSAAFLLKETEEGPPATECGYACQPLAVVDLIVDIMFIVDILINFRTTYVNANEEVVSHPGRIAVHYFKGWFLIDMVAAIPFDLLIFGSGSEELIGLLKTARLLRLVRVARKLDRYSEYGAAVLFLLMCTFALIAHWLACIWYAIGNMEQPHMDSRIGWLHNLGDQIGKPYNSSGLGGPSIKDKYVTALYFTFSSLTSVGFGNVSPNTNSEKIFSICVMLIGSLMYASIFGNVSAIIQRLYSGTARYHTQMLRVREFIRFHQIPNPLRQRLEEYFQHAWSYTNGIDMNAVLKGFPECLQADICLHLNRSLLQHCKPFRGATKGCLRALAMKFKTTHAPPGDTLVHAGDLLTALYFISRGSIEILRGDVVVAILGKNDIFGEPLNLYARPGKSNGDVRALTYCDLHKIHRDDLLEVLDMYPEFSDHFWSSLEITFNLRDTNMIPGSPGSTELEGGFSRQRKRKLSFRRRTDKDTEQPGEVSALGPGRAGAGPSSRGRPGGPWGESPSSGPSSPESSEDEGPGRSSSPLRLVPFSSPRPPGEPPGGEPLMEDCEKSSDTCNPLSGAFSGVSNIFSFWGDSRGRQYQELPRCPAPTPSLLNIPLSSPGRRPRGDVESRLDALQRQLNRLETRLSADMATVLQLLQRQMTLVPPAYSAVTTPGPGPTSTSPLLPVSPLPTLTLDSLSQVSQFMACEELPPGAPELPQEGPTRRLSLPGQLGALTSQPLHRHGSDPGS
row,Structure (SMILES),"hERG current change (%, negative = inhibition) at 10uM"
1,CCCCN(CCCC)S(=O)(=O)c1ccc(C(=O)Nc2nnc(COC)o2)cc1,-28.2%
2,CC(=O)N1CCN(CC(=O)Nc2cc([N+](=O)[O-])ccc2Cl)CC1,15.5%
3,O=C(c1ccco1)N(CCC(c1ccccc1)c1ccco1)Cc1ccccc1 (stereo not shown),-14.8%
4,O=C1CCC(=O)N1c1ccc(NC2CCN(Cc3ccccc3)CC2)c([N+](=O)[O-])c1,2.23%
5,CC(C)(C)NC(=O)/C=C/c1cccc(C(F)(F)F)c1,-8.66%
6,Cc1cc(C)n2nc(SCC(=O)NC3CCCC(C)C3C)nc2n1 (stereo not shown),4.23%
7,COc1ccc(CCN(C(=O)C(F)(F)F)C(C(=O)NC2CCCCC2)c2ccc(C)s2)cc1OC (stereo not shown),19.3%
8,O=C(NC1CCCc2ccccc21)c1cc(Cl)ccn1 (stereo not shown),14.5%
9,O=C(Cc1cc(=O)[nH]c(=O)[nH]1)NCc1ccc(Cl)cc1,19.7%
10,CC1CCCCN1S(=O)(=O)c1ccc(C(=O)Nc2nnc(-c3ccco3)o2)cc1 (stereo not shown),-2.35%
11,Cc1nc2ccccc2n1C1CCN(Cc2nnnn2CCc2ccccc2)CC1.Cl,-68.6%
12,COc1cc(NC(=O)C2CC(=O)N(CCc3ccccc3)C2)cc(OC)c1 (stereo not shown),-12.8%
13,CCc1nnc(NS(=O)(=O)c2ccc(NC(=O)c3ccc(S(=O)(=O)N(CC)CC)cc3)cc2)s1,11.6%
14,COc1ccccc1-c1nc(C(=O)NCC2CCCO2)cc2c1[nH]c1ccccc12 (stereo not shown),-29%
15,COc1ccc(-c2ccc(C#N)c(SCC(=O)NC3CC3)n2)cc1OC,8.47%
16,CCOC(=O)Cc1nn(C(C)C)c(=O)c2ccccc12,26.6%
17,CCCCCCSc1ccc(-c2nc3ccc(C)cn3c2NCc2ccccc2)cc1.O=C(O)C(F)(F)F,6.22%
18,COc1cc(OC)cc(-c2sc3ccc(OC)cc3c2C#CC(C)(C)O)c1,17%
19,CCOCC(=O)Nc1ccc(-c2cn3cccnc3n2)cc1,-11.6%
20,CC(C)c1ccccc1OCC(=O)NN1C(=O)c2ccccc2C1=O,6.27%
21,O=C(c1ccccc1)c1ccc(OCCO)cc1,15.8%
22,N#CC1=C(N)C(C#N)(C#N)[C@H](c2c(F)cccc2F)[C@H]2CC3(CC=C12)OCCO3,-9.59%

row,Structure (SMILES),"hERG current change (%, negative = inhibition) at 10uM"
1,Cc1nc(C(=O)N(C)C)nn1-c1ccc([N+](=O)[O-])cc1,-0.782%
2,COc1ccccc1C(=O)N/C(=C/c1ccc(Br)cc1)C(=O)NCC(=O)O,-8.44%
3,Cc1nc2c(C(=O)NCc3ccc4c(c3)OCO4)c[nH]n2c(=O)c1Cl,7.05%
4,O=C(O)CSc1nc(SCc2ccccc2Cl)nc2c1CCCC2,15.4%
5,Cc1nnc(NC(=O)CN2C(=O)NC3(CCCC3)C2=O)s1,6.62%
6,COc1cc(CCC(=O)OCC(=O)NCC2CCCCC2)cc(OC)c1OC,15.3%
7,CCn1c(CSc2nc3ccccc3s2)nnc1SCC(=O)NCC(=O)OC,-10.2%
8,Cc1ccc(S(=O)(=O)N2CCN(C(=O)CSCc3ccc(C(C)C)cc3)CC2)cc1,-10.5%
9,Cc1nn(CCOc2ccccc2)c(=O)n1-c1cccc(F)c1,-7.04%
10,CCn1c(CNc2cccc(Cl)c2)nnc1SCC(=O)OC1CCCCC1,-25%
11,CCN(CC)C(=O)CSc1nc2c(sc(=S)n2-c2ccccc2)c(=O)n1-c1ccc(OC)c(OC)c1,-2.68%
12,N#C/C(=C/c1ccc(Sc2nc3ccccc3[nH]2)o1)c1ccccc1F,-7.86%
13,COc1ccc(CCNC(=O)Cc2cc(=O)[nH]c(=O)[nH]2)cc1OC,-9.44%
14,CCCn1nc2cc(C(=O)NCc3ccc(C)cc3)ccc2c1OCC,-1.4%
15,CCCc1cc(=O)oc2cc(OCC(=O)NC3CC(C)(C)NC(C)(C)C3)ccc12,-1.9%
16,CCOC(=O)/C=C1\SCC(=O)N1CC(=O)NC(C)c1ccccc1 (stereo not shown),-15.2%
17,CCCc1cc(=O)oc2cc(C)cc(OCC(=O)NCC(O)c3ccccc3)c12 (stereo not shown),13.5%
18,O=C(Nc1cc2c(=O)n(-c3ccc(Oc4ccccc4)cc3)ccc2oc1=O)c1ccccc1,9.1%
19,N#C/C(=C\c1ccc(-c2cccc([N+](=O)[O-])c2)o1)C(=O)Nc1nc(-c2cccs2)cs1,-2.87%
20,CN(Cc1ccccc1C#N)S(=O)(=O)c1cccs1,14.8%
21,CN1CCN(C(=O)C2=C[C@@H](c3coc4ccccc4c3=O)C[C@@H](OCCCCO)O2)CC1,0.749%
22,COc1ccc(Cl)cc1NC(=O)CN(C1CCCCC1)S(C)(=O)=O,-37.5%

row,Structure (SMILES),"hERG current change (%, negative = inhibition) at 10uM"
1,COc1cc(NC(=O)c2ccccc2)c(OC)cc1NC(=O)CN1C(=O)NC2(CCCCC2)C1=O,-70.3%
2,c1ccc(CCn2nnnc2C(c2cccnc2)N2CCN(c3ccccc3)CC2)cc1 (stereo not shown),-47.6%
3,O=C(NC1CCCCC1)NC1CC2CCC(C1)N2Cc1nnnn1Cc1ccc2c(c1)OCO2 (stereo not shown),-39.8%
4,COc1ccccc1NS(=O)(=O)c1ccc2oc(SC(C)C(=O)N3CCNC3=O)nc2c1 (stereo not shown),-26.6%
5,CCOc1ccc(C(=O)Nc2cccc(C(=O)O)c2C)cc1Cl,25.2%
6,Cc1[nH]c2ccccc2c1C(=O)CSc1ccc(F)cc1,25%
7,Cc1nnc(SCC(=O)NCC2CCCCC2)n(N)c1=O,10.9%
8,CC(=O)c1c(C)[nH]c(C(=O)OCC(=O)Nc2ccc(Cl)cc2[N+](=O)[O-])c1C,-8.48%
9,COC(=O)C1=C(c2ccccc2)C[C@@H]2CC[C@H]1N2C(=O)NCCNC(C)=O,-2.15%
10,C[Se]C[C@@H](N)C(=O)O.Cl,12.3%
11,COCCCNC(=O)CCn1nc(-c2ccc(Cl)cc2)ccc1=O,-27.9%
12,COc1ccc(OC)c(/C=N/NC(=O)c2ccc(N(C)S(=O)(=O)c3ccccc3)cc2)c1,6.58%
13,O=C(CN(C(=O)CNC(=O)c1cccs1)c1ccccc1)NC1CCCCC1,3.72%
14,O=C(N/N=C/c1c(O)n(Cc2ccccc2)c(=O)[nH]c1=O)c1ccccc1,19%
15,CN(C(=O)CSc1nc2ccc(Br)cc2c(=O)n1Cc1ccco1)C1CCS(=O)(=O)C1 (stereo not shown),-79.6%
16,CSc1ccccc1C(=O)C1CCCN(Cc2cnn(-c3ccccc3)c2)C1 (stereo not shown),-67.4%
17,CCOC(=O)c1c(NC(=O)c2cccs2)sc2c1CCC2,25.3%
18,O=C(NCCCc1ccccc1)C1CCC(CNc2c(N3CCCCC3)c(=O)c2=O)CC1 (stereo not shown),8.13%
19,Cc1c(Cl)cccc1NC(=O)CCN1CCCC(C)C1 (stereo not shown),-3.7%
20,CC(C)c1nc(SCC(=O)NC(=O)NC(C)(C)C)n[nH]1,-14.2%
21,CCOc1ccc(C(=O)NC(=S)Nc2ncccc2C)cc1[N+](=O)[O-],-67.6%
22,O=C(C(=O)N1CCCC1)c1c(-c2ccccc2)[nH]c2ccccc12,7.82%

row,Structure (SMILES),"hERG current change (%, negative = inhibition) at 10uM"
1,CCN(CC(=O)Nc1ccccc1OC)C(=O)C1CCC1,4.56%
2,CCCCCC(=O)NC(=S)Nc1ccc2oc(=O)ccc2c1,8.93%
3,Cc1cc(N2CCCC2=O)cc(C)c1S(=O)(=O)NCCOc1ccc(C(C)(C)C)cc1,-5.35%
4,O=C(CSC(=S)N1CCCC1)Nc1ncc(Cl)cc1Cl,13.7%
5,CCNC(=O)c1ccc(C2SCC(=O)N2CCc2ccccc2)cc1 (stereo not shown),-19.6%
6,COc1ccc(OCCCC(=O)OCC(=O)NNC(=O)c2ccc([N+](=O)[O-])cc2)cc1,-5.31%
7,Cc1ccc2nc3c(c(Nc4cccc(O)c4)c2c1)CCC3.Cl,-70%
8,COc1cc(OC)c(NC(=O)CCNS(=O)(=O)c2ccc3c(c2)CC(C)N3C(C)=O)cc1Cl (stereo not shown),-6.33%
9,CC(=O)Nc1cccc(C(=O)N2CCC(n3nccc3NC(=O)CC(C)C)CC2)c1,-28.1%
10,CC(C)(C)NC(=O)C(c1ccc(F)cc1)N(Cc1cccs1)C(=O)c1ccc(CN2CCOCC2)o1 (stereo not shown),-12.7%
11,COc1ccccc1NC(=S)NC(=O)c1c(-c2ccccc2Cl)noc1C,20.4%
12,Cc1cc2cc(C)c(NCCNC(=O)c3ccccc3Cl)nc2cc1C,6.23%
13,CCOc1ccc(NC(=S)NC(=O)c2c(Br)cnn2C)c([N+](=O)[O-])c1,6.58%
14,CCN1C(=O)/C(=c2\sc3nc(=O)c(Cc4ccccc4)nn3c2=O)c2ccccc21,8.88%
15,OCCNCc1ccc(OC2CCCC2)cc1,11.1%
16,Cc1cc(C)cc(NC(=O)CN2CCN(C(=O)C3CCCO3)CC2)c1 (stereo not shown),7.51%
17,Clc1ccc(Br)cc1-c1nc(-c2ccncc2)no1,7.52%
18,O=C(c1cc(-c2cccs2)nc2ccccc12)N1CCN(S(=O)(=O)c2cccc(F)c2)CC1,-0.1%
19,CC(=O)Nc1ccc(S(=O)(=O)N2c3ccccc3NC(=O)CC2C)c(Cl)c1 (stereo not shown),11.9%
